These results are taken from the supplement of paper PMC3334620.

In all, about 33,000 sequences were measured (“E-score (-0.5 to 0.5)”: median about -0.011, highest 2% from about 0.28 on). The list shows a part of the results.

This experiment deals with T1, Gcr1 (UniProt P07261).
T1 sequence: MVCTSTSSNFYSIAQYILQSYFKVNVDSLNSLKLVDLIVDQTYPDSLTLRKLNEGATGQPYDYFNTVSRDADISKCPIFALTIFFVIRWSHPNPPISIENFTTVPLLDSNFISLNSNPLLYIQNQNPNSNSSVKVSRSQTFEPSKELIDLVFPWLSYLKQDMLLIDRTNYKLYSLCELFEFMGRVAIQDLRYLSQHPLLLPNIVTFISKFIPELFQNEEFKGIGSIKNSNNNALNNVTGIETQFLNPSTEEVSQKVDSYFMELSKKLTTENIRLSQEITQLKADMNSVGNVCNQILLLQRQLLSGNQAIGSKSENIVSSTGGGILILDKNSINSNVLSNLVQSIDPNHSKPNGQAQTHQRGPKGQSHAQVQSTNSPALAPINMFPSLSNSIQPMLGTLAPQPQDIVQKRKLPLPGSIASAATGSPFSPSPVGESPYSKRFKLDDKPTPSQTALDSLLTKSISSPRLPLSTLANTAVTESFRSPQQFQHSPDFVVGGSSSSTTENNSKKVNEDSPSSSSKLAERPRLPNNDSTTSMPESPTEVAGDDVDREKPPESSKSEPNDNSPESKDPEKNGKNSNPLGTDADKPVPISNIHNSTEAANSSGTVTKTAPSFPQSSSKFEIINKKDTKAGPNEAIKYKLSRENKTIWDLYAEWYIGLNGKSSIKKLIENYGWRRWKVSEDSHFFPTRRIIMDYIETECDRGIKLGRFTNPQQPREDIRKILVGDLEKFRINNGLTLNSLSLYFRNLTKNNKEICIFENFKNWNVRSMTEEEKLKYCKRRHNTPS
Briefly: PBM E-score (8-mer binding enrichment) (E-score (-0.5 to 0.5)); higher = stronger / more preferred TF binding; most listed sequences are background and not binding sites. As to conditions: protein concentration: 100 nM; construct: GST-full length. The method in brief:
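Each ungapped eight-base word and its reverse complement, pooled, received an E-score from the Universal PBM Analysis Suite. Underlying scans, normalised with masliner, recorded fluorescent anti-GST bound to GST-tagged yeast transcription factors. These were applied at about 100-200 nM to universal all-10-mer Agilent arrays double-stranded by primer extension.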
Take TCGCACCA: the “PBM E-score” value was found to be 0.0244.

Take GAAGTAAC: the “PBM E-score” value is -0.144.

On to TGCCATAA, for which the “PBM E-score” value was -0.09.

Consider CGGGGAAA, for which the “PBM E-score” value stood at 0.0901.

With CACTTACC, the “PBM E-score” value is -0.064.

AGTAGAAA: the “PBM E-score” value worked out at 0.162.

In the case of CCTGTGCG, the “PBM E-score” value is -0.0938.

For the sequence CAACTTAA, the “PBM E-score” value is -0.0113.

For CGATGTTA, the “PBM E-score” value was -0.049.

On to AGGTTTAT, for which the “PBM E-score” value is -0.00858.

On to GTGTGATA, for which the “PBM E-score” value was -0.0525.

Take GTGCAACA: the “PBM E-score” value was -0.163.

For TACCCTAA, the “PBM E-score” value was determined as 0.0283.

With CAATGTGC, the “PBM E-score” value was 0.00539.

On to GATATGCA, for which the “PBM E-score” value was -0.137.

Take ACGGATCC: the “PBM E-score” value was determined as 0.117.

As for ATGATCGA, the “PBM E-score” value was -0.102.

AAGATGGC: the “PBM E-score” value is -0.168.

As for AATTCACC, the “PBM E-score” value was -0.031.

For GATATCCC, the “PBM E-score” value was -0.00544.

For the sequence GCGACATA, the “PBM E-score” value is 0.087.

Turning to AGGGTACC, the “PBM E-score” value was determined as 0.0354.

For AAGGAGCG, the “PBM E-score” value was -0.201.

GTCTGGAA: the “PBM E-score” value stood at 0.189.

With GACGTTAC, the “PBM E-score” value was -0.0517.

On to ATCCCTTA, for which the “PBM E-score” value was -0.00764.

Consider TCTTCAAA, for which the “PBM E-score” value is 0.154.

Consider ATCTGTCG, for which the “PBM E-score” value was -0.0584.

Regarding CCATGCTA, the “PBM E-score” value was -0.0974.

Consider CATGTTGA, for which the “PBM E-score” value is 0.0164.

With GCCGTCTA, the “PBM E-score” value is -0.0242.

Turning to AGATTGAT, the “PBM E-score” value was -0.0159.

In the case of GCATAGTA, the “PBM E-score” value amounted to 0.0271.

For AAGACGTG, the “PBM E-score” value was determined as 0.0318.

With CTCAGTTC, the “PBM E-score” value was -0.182.

As to AGGCACGG, the “PBM E-score” value was -0.0862.

Regarding GCCTACCA, the “PBM E-score” value was -0.0627.

For the sequence ATAATGAG, the “PBM E-score” value was 0.0333.

Take CACACCTG: the “PBM E-score” value is -0.085.

Regarding AAACTGAT, the “PBM E-score” value stood at 0.0967.

AACCAGTA: the “PBM E-score” value was 0.315.

On to TACACACA, for which the “PBM E-score” value was -0.14.

As for CTAACAAA, the “PBM E-score” value was -0.0621.

As for GTGCATGA, the “PBM E-score” value is -0.194.

With CTCATCGC, the “PBM E-score” value was -0.185.

On to CGTCGATC, for which the “PBM E-score” value was -0.0914.

Consider ACCATAGA, for which the “PBM E-score” value is -0.0141.

As for GCTAACAA, the “PBM E-score” value is -0.138.

In the case of GGCGTGCA, the “PBM E-score” value was -0.161.

On to GTAACAAC, for which the “PBM E-score” value was found to be 0.179.

AAGTCTTA: the “PBM E-score” value was -0.144.

For the sequence AGATTACA, the “PBM E-score” value was -0.271.

On to GCTAAACC, for which the “PBM E-score” value was -0.164.

Regarding GAATCGTA, the “PBM E-score” value is -0.0293.

For the sequence AGCTTTAA, the “PBM E-score” value turned out to be 0.0602.

Take GAGAGCAA: the “PBM E-score” value is -0.0939.

As for GGTCAACC, the “PBM E-score” value is -0.151.

Turning to CCTCAGCC, the “PBM E-score” value was -0.246.

For AGTTATAC, the “PBM E-score” value was -0.0347.

In the case of ACCGAGAC, the “PBM E-score” value was -0.132.

In the case of CTCGTCAA, the “PBM E-score” value is -0.0346.

Turning to CTGTCCCA, the “PBM E-score” value is -0.0382.

With GAGCCGCC, the “PBM E-score” value was 0.248.

GTTCGCGA: the “PBM E-score” value amounted to 0.19.

For the sequence ACTAAGAC, the “PBM E-score” value came out at 0.052.

With CCCTCCGG, the “PBM E-score” value was -0.0226.

For GGCCGAAC, the “PBM E-score” value was -0.111.

With GCTTCAAC, the “PBM E-score” value was 0.093.

CGTCGAAA: the “PBM E-score” value amounted to 0.115.

With GCATGTCA, the “PBM E-score” value is -0.249.

As to ATACGCCA, the “PBM E-score” value was -0.00959.

As for CGGCGGGA, the “PBM E-score” value is -0.152.

With AAGGAATA, the “PBM E-score” value was -0.159.

Regarding CACGCCCA, the “PBM E-score” value is -0.107.

In the case of AGAGGAGG, the “PBM E-score” value was found to be 0.0786.

As to CCCACATC, the “PBM E-score” value worked out at 0.0685.

In the case of CAACCGTG, the “PBM E-score” value is -0.245.

As to ACGAGTAC, the “PBM E-score” value is -0.0478.

For the sequence GAGGTGAA, the “PBM E-score” value came out at 0.00039.

TCGTATAA: the “PBM E-score” value turned out to be 0.286.

With CCAAAGAG, the “PBM E-score” value worked out at 0.0586.

Regarding AATTTTGG, the “PBM E-score” value is 0.287.

In the case of AAATAACC, the “PBM E-score” value was -0.075.

For GGCAAAAA, the “PBM E-score” value was determined as 0.077.

Take AAAACGCG: the “PBM E-score” value was 0.117.

Take AGTCGTCA: the “PBM E-score” value was -0.00654.
